Data as given in patent CN113461820A (SUZHOU NOVOPROTEIN SCIENT INC, dated 2021).

Target: T1, CD19 (CD19+靶细胞上: Raji细胞, PBMC中的CD19+B细胞) (human, UniProt P15391 20-556)
T1 sequence (looked up): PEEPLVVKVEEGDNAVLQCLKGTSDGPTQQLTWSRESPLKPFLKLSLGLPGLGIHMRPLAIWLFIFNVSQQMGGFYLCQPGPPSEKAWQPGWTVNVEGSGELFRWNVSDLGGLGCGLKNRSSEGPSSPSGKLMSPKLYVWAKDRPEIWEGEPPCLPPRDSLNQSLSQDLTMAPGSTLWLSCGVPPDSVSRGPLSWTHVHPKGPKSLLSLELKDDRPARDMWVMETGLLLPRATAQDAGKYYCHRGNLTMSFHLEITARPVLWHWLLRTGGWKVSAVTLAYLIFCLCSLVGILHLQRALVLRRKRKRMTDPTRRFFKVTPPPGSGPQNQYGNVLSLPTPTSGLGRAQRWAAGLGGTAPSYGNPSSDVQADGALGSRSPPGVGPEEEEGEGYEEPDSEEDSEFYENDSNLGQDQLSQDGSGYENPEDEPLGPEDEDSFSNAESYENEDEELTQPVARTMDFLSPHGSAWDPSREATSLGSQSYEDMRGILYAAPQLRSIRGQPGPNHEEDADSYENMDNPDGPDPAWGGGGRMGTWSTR
Test: cell-based or functional assay

B1: 靶向CD3和CD19的双特异抗体SC30A (bispecific antibody)
chain: DIQLTQSPASLAVSLGQRATISCKASQSVDYDGDSYLNWYQQIPGQPPKLLIYDASNLVSGIPPRFSGSGSGTDFTLNIHPVEKVDAATYHCQQSTEDPWTFGGGTKLEIKGGGGSGGGGSGGGGSQVQLQQSGAELVRPGSSVKISCKASGYAFSSYWMNWVKQRPGQGLEWIGQIWPGDGDTNYNGKFKGKATLTADESSSTAYMQLSSLASEDSAVYFCARRETTTVGRYYYAMDYWGQGTTVTVSSGGGGS[letters of about 120 residues omitted]GGGGSGGGGSGGGGSQTVVTQEPSLTVSPGGTVTLTCGSSTGPVTGGNYPNWVQQKPGQAPRGLIGGTKFLAPGTPARFSGSLLGGKAALTLSGVQPEDEAEYYCVLWESNRWVFGGGTKLTVL
  报告基因法 (Jurkat-NFAT-Luc, 含有靶细胞) EC50: 1.36 ng/mL
